Source: PubChem BioAssay AID485294 (National Center for Advancing Translational Sciences (NCATS), 2010)
The campaign covered roughly 370,000 compounds. About 150 (0.041%) were called active. The inconclusive results got no clear call from the source; some entries with a clear call stand among them for comparison. Calls come from the whole dose curve; as a rule, active = well fitted inhibition curve with a large enough effect; inconclusive = small, poorly fitted or top-dose-only effect; inactive = flat fitted curve, though single readings scatter. Potencies of inconclusive entries are left out as doubtful fits.

Molecular target: Beta-lactamase (Escherichia coli (strain K12)) (UniProt P00811)
UniProt P00811, sequence (P00811 whole entry, looked up): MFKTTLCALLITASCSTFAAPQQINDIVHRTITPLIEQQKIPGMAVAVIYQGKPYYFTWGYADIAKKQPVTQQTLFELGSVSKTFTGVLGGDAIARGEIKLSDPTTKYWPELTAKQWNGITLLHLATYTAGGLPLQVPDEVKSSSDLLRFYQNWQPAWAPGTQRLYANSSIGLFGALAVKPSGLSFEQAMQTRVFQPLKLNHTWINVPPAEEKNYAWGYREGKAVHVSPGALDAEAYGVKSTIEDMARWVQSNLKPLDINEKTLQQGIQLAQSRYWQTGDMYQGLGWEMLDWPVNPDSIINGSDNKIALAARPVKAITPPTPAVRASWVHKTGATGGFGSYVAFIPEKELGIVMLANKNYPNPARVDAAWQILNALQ
Test: qHTS Inhibitors of AmpC Beta-Lactamase (assay with detergent); note: nearly all actives have a fitted effect of over 25% in size;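 for activity change, negative = inhibition: 0% = no-compound wells and -100% = no-enzyme wells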
Conditions: AmpC hydrolysis of nitrocefin, absorbance 480 nm, 0.01% Triton; activity change, negative = inhibition: at 114 µM (top of the series)
In short: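 AmpC (5.3 nM in the dispensed reagent) in 20 mM phosphate pH 7.0 with 0.01% (detergent screen) or 0.0001% Triton X-100 was preincubated with compounds for 15 min at room temperature. Nitrocefin was then added from an 800 uM solution, and hydrolysis was followed at 480 nm.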
Potency is the fitted concentration of half-maximal effect; tags give direction and shape of the fitted curve.

Structure (SMILES) | activity change, negative = inhibition | Potency
Cc1nc2c(n1C1CCCCC1)C(=O)c1ccccc1C2=O | inactive: -9.92% | 
COc1ccc(N2C(=O)CC(Cc3ccccc3)C2=O)cc1 (stereo unspecified) |  | inconclusive [inhibitor, full curve]
Cc1ccc(C(CNS(=O)(=O)c2ccc(C)cc2)N2CCN(C)CC2)cc1 (stereo unspecified) |  | inconclusive [inhibitor, full curve, poor fit]
CC1CCN(Cc2nc3c(c(=O)n(C)c(=O)n3C)n2CCCc2ccccc2)CC1 |  | inconclusive [inhibitor, full curve, poor fit]
CCOC(=O)C1(C)NC(c2ccc(N(C)C)cc2)C2C(=O)N(CC)C(=O)C21 (stereo unspecified) |  | inconclusive [inhibitor, full curve, poor fit]
COc1ccc(-c2sc(Nc3ccccc3)n[n+]2-c2ccc(F)cc2)cc1Br |  | inconclusive [inhibitor, full curve]
COc1ccc(N2CCN(C3CCCN(C(=O)CN4CCCC4=O)C3)CC2)cc1 (stereo unspecified) | inactive: -4.84% | 
COc1ccc(-c2csc(N3N=C(C)C(C)C3=O)n2)cc1 (stereo unspecified) | inactive: 2.59% | 
COCCCNC(=O)c1cc(-c2cccnc2)nc2ccc(S(=O)(=O)N3CCC(C)CC3)cc12 | inactive: 2.11% | 
O=C(NC1CCS(=O)(=O)C1)Oc1ccc(Cl)cc1 (stereo unspecified) |  | inconclusive [inhibitor, full curve, poor fit]
COc1ccc(/C=C/C(=O)Nc2nc3n(n2)C(c2ccccc2)C=C(c2ccccc2)N3)cc1 (stereo unspecified) | inactive: 16.6% | 
C(=N\Nc1nc(-c2ccccc2)cs1)/c1cccs1 | inactive: 1.57% | 
COc1ccc2c(c1)oc(=O)c1ccccc12 |  | inconclusive [inhibitor, partial curve, poor fit]
C=CCn1c(SCC(=O)N2CCCC2)nc2cc(C(=O)NCC3CCCO3)ccc2c1=O (stereo unspecified) |  | inconclusive [inhibitor, single point]
CCCCN(C(=O)CCCc1nc2ccccc2c(=O)[nH]1)c1c(N)n(CC(C)C)c(=O)[nH]c1=O |  | inconclusive [inhibitor, full curve, poor fit]
CCOC(=O)c1cc2c(=O)n3ccccc3nc2n(CC(C)C)c1=NC(=O)c1cc2ccccc2o1 | inactive: -2.98% | 
COc1ccc(OC)c(C2C(C(C)=O)=C(O)C(=O)N2CCN2CCOCC2)c1 (stereo unspecified) |  | inconclusive [inhibitor, full curve, poor fit]
CCOC(=O)c1cc(OC(=O)c2cccnc2)n(-c2ccccc2)n1 |  | inconclusive [inhibitor, full curve]
O=C1Cn2c(nc3ccccc32)N1c1cccc(C(F)(F)F)c1 |  | inconclusive [inhibitor, full curve, poor fit]
O=S(=O)(c1ccccc1)N1CCN(c2ncccn2)CC1 |  | inconclusive [inhibitor, partial curve, poor fit]
Cc1ccc(CN(C)C(=O)c2ccccc2Oc2ccccc2)o1 | inactive: 0.914% | 
NC(=O)CC[C@@H]1NC(=O)[C@H](CO)NC(=O)c2cc([N+](=O)[O-])cc(I)c2NCC[C@@H](C(N)=O)NC(=O)[C@H](Cc2ccc(O)cc2)NC1=O |  | inconclusive [inhibitor, partial curve, poor fit]

Structure (SMILES) | activity change, negative = inhibition | Potency
COc1ccc(C2=NN(CN3C(=O)C(=O)c4ccccc43)C(c3ccc(OC)cc3)C2)cc1 (stereo unspecified) |  | inconclusive [inhibitor, full curve, poor fit]
Cc1oc(-c2ccccc2)nc1CN1C(=O)C(C)N=C(c2ccccc2F)c2cc(Cl)ccc21 (stereo unspecified) | inactive: -8.04% | 
COc1ccc(NC(=S)N(CCc2c(C)[nH]c3ccc(C)cc23)Cc2ccco2)cc1 |  | inconclusive [inhibitor, full curve]
COc1ccccc1C(=O)NC(=O)CSc1nc(C)cs1 |  | inconclusive [inhibitor, full curve, poor fit]
Cc1nc2scc(C)n2c(=O)c1S(=O)(=O)Nc1ccc(N2CCOCC2)cc1 |  | inconclusive [inhibitor, partial curve, poor fit]
CNC(=S)Nc1ccc(C)cc1 |  | inconclusive [inhibitor, full curve]
COc1ccc(/C=C(/NC(=O)c2ccc(OC)c(OC)c2)C(=O)NCCCn2ccnc2)cc1 |  | inconclusive [inhibitor, partial curve]
CC(=O)Nc1ccc(S(=O)(=O)Nc2ccc(N3CCOCC3)c(F)c2)cc1 |  | inconclusive [inhibitor, partial curve]
Cc1ccc(S(=O)(=O)N(CCC#N)C2CCCCC2)c2nsnc12 |  | inconclusive [inhibitor, partial curve, poor fit]
O=S(=O)(NCCOCC(F)(F)C(F)F)c1ccc2oc3ccccc3c2c1 |  | inconclusive [inhibitor, single point]
Cc1cc2nc(-c3ccc(SCc4ccc(C#N)cc4)nc3)[nH]c2cc1C |  | inconclusive [inhibitor, full curve]
COCc1cc(C)nc(SCC[N+](C)(C)CC(=O)Nc2ccccc2)c1C#N |  | inconclusive [inhibitor, single point]
O=C(Nc1ccc(Cl)c([N+](=O)[O-])c1)C(Sc1ccccc1)c1ccccc1 (stereo unspecified) |  | inconclusive [inhibitor, full curve, poor fit]
CCOC(=O)c1sc(NC(=O)c2ccc(Br)o2)cc1C |  | inconclusive [inhibitor, full curve, poor fit]
O=C(C1=C[C@H](C2CC2)C[C@H](OCCCCO)O1)N1CCN(Cc2ccccc2)CC1 | inactive: -5.58% | 
Cc1cc2cc(CN(Cc3cccs3)S(=O)(=O)c3ccc4c(c3)OCCO4)c(=O)[nH]c2cc1C |  | inconclusive [inhibitor, full curve, poor fit]
CCOC(=O)CN(C(=O)CSc1nnc(CNc2ccc(C)cc2C)n1CC)c1ccccc1 | inactive: -4.75% | 
Cc1ccc(C(=O)Nc2nnc(C3CCCCC3)s2)o1 |  | inconclusive [inhibitor, single point]
O=C(c1ccccc1F)N1CCCC(c2ccccc2)C1 (stereo unspecified) |  | inconclusive [inhibitor, full curve, poor fit]
Cc1[nH][nH]c(=O)c1C(c1cc(Br)ccc1O)c1c(C)[nH][nH]c1=O |  | inconclusive [inhibitor, full curve, poor fit]
CCOC(=O)C1=C(CC)OC(N)=C(C#N)C1c1ccsc1 (stereo unspecified) | inactive: -0.23% | 
CCOC(=O)CSc1nc(N)c(C#N)cc1C#N |  | inconclusive [inhibitor, full curve]

Structure (SMILES) | activity change, negative = inhibition | Potency
Clc1ccccc1CSc1nnc(Cn2cnc3ccccc32)n1-c1ccccc1 |  | inconclusive [inhibitor, full curve, poor fit]
Cc1nn(-c2ccccc2)c(C)c1/C=N/NC(=O)CSc1nnc(SCc2ccc(Cl)cc2)s1 |  | inconclusive [inhibitor, full curve]
COc1ccc(C2CCCN2C(=O)Nc2ccc(C)c(C)c2)cc1OC (stereo unspecified) |  | inconclusive [inhibitor, full curve, poor fit]
COC(=O)C1=C(C)N(Cc2ccccc2)C(=S)N[C@H]1c1ccc(Br)cc1 | inactive: -6.78% | 
Cc1ccc(NC(=O)c2cc(CC(C)C)nc3ccccc23)cc1 |  | inconclusive [inhibitor, partial curve, poor fit]
O=C(Nc1ccc(Cl)cc1)c1ccc2c(c1)OCO2 | inactive: -5.98% | 
CCc1nc2cc(Cl)c(Cl)cc2[nH]1 | inactive: 3.96% | 
O=C(CSc1nc2c(c(=O)n1-c1ccc(F)cc1)SCC2)NCc1ccco1 | inactive: 3.55% | 
CCN(CC)S(=O)(=O)c1ccc2c(c1)nc(SCC(=O)NC1CC1)n2-c1ccccc1OC |  | inconclusive [inhibitor, partial curve]
COc1ccc(C(=O)Nc2ccc(NC(=O)c3cccs3)cc2)cc1Cl |  | inconclusive [inhibitor, full curve]
O=S(=O)(c1cc(Cl)sc1Cl)N1CCCC1 | inactive: 4.17% | 
CC(C)(C)NC(=O)C1CC(=O)OC12CCCCC2 (stereo unspecified) |  | inconclusive [inhibitor, full curve, poor fit]
Cc1ccc(C(=O)CCNc2ccccc2)o1 | inactive: 0.234% | 
CCN1CCN(S(=O)(=O)c2ccc(Cl)c(C(=O)Nc3ccccc3N3CCOCC3)c2)CC1 |  | inconclusive [inhibitor, full curve, poor fit]
N#CC(C#N)=Cc1ccc(O)c(O)c1 |  | inconclusive [inhibitor, partial curve, poor fit]
COC(=O)c1sc2cc(=O)n(-c3cccc(C(F)(F)F)c3)nc2c1O |  | inconclusive [inhibitor, full curve, poor fit]
Cc1nc(NC(=O)CN2CCN(c3ccccc3F)CC2)sc1C(=O)N(C)C | inactive: -2.83% | 
COc1ccc(-c2noc(-c3ccc4c(c3)OCO4)n2)cc1 | inactive: -12% | 
C=CCn1c(SCC#N)nc2sc(CC)cc2c1=O |  | inconclusive [inhibitor, full curve, poor fit]
CCOc1cc(N2CCOCC2)c(OCC)cc1NC(=O)COC(=O)CCc1c[nH]c2ccccc12 |  | inconclusive [inhibitor, partial curve, poor fit]
Cc1nc2cc(F)ccc2n1C1CCN(Cc2nnnn2CCc2ccccc2)CC1 | inactive: 6e-08% | 
COCCn1c(N)c(NCc2ccccc2)c(=O)n(CC(=O)Nc2cc(C)ccc2C)c1=O |  | inconclusive [inhibitor, full curve, poor fit]
